According to article PMC13541613:
Only a part is listed here, and it is no random draw. At the low end of the ranking the order means little.

These sequences were tested against ZNF721 DBD1 (UniProt Q8TF20-2) (assay: HT-SELEX). Conditions: 20 mM HEPES pH 7, 140 mM KCl, 5 mM NaCl, 1 mM K2HPO4, 2 mM MgSO4, 100 uM EGTA, ZnSO4, 0.1% Tween20; room temperature, 1 h; high values mean tight binding; double strand, one strand shown.
With ATGCTGTTTC the binding signal (relative 10-mer count) was 0.000413. With CCTCCACCCA the binding signal (relative 10-mer count) was 0.00505. For AAACGCTGTT, the binding signal (relative 10-mer count) was 0.000138. Work on GCCCACCACC yielded a binding signal (relative 10-mer count) of 0.00688. With CCGCCCTCCC the binding signal (relative 10-mer count) was 0.00642. In the case of CGAAAAACAG, the binding signal (relative 10-mer count) is reported as 0.00078. Sequence AACCCTGCTT has a binding signal (relative 10-mer count) of 0.000367. CTCCACCCCC was tested, and the binding signal (relative 10-mer count) was 0.00812. CCACCACCAC gave a binding signal (relative 10-mer count) of 0.00688. With CGCTGTTTTA the binding signal (relative 10-mer count) was 0.000321. AAAAGCAGGG gave a binding signal (relative 10-mer count) of 0.000459. In the case of CACTGTTTTC, the binding signal (relative 10-mer count) is reported as 0.000505. Sequence CCACCGCCCA has a binding signal (relative 10-mer count) of 0.00477. AGCATACCCA showed a binding signal (relative 10-mer count) of 0.0246. With ACAGCATCCC the binding signal (relative 10-mer count) was 0.000688. Work on CAGTGTTTCC yielded a binding signal (relative 10-mer count) of 0.000229. AAAGCAGCCC was tested, and the binding signal (relative 10-mer count) was 0.00225. AAAACAGGGG showed a binding signal (relative 10-mer count) of 0.000642. Work on AAAGCAGTGT yielded a binding signal (relative 10-mer count) of 0.000505. Work on AACAGCATGC yielded a binding signal (relative 10-mer count) of 0.000596. Work on ACAGGGTATC yielded a binding signal (relative 10-mer count) of 0.000367. With AAAAAAAGAA the binding signal (relative 10-mer count) was 0.00867. CACAAAACAG gave a binding signal (relative 10-mer count) of 0.000917. With GCCCCCGCCC the binding signal (relative 10-mer count) was 0.00527. AAAAAAAGAG showed a binding signal (relative 10-mer count) of 0.00949. Work on AAAAAACAGG yielded a binding signal (relative 10-mer count) of 0.000642. Sequence AACGCTGCTT has a binding signal (relative 10-mer count) of 0.000688. In the case of AAAACAGCCC, the binding signal (relative 10-mer count) is reported as 0.000275. In the case of CCCCACCCCG, the binding signal (relative 10-mer count) is reported as 0.00784. With AAAACAGAGT the binding signal (relative 10-mer count) was 0.000321. CAGTGTTGCC was tested, and the binding signal (relative 10-mer count) was 0.000321. CAGAGTACCC was tested, and the binding signal (relative 10-mer count) was 0.000505. CCTACCCCCC gave a binding signal (relative 10-mer count) of 0.00555. Work on AAAAGAACAG yielded a binding signal (relative 10-mer count) of 0.00055. Sequence AACAAAACAG has a binding signal (relative 10-mer count) of 0.000826. In the case of AAACAGTGTA, the binding signal (relative 10-mer count) is reported as 0.000413. For CCGCCCCGCC, the binding signal (relative 10-mer count) was 0.00592. AAGCAGTGTA showed a binding signal (relative 10-mer count) of 0.000688.
